In PubChem BioAssay AID1645887 (National Center for Advancing Translational Sciences (NCATS), 2021) one finds activation data, which are given here for 53 molecules.

Values joined by “and” are separate entries in the source; they are usually repeats but may differ in a detail not shown here. Identical values can stand only once. Out of some 16,000 compounds screened, about 40 (0.2%) were called active. Not shown: some 1% with an inconclusive outcome. The call rests on the fitted dose curve; in most records, active means well fitted activation curve with a large enough effect; inconclusive means small, poorly fitted or top-dose-only effect, or another doubt; inactive means no such curve, though single readings can be large or run the other way. The list shows a part of the results.
On the % scale 0 is the no-effect control and ±100 the full control effect.

The target of the experiment is Rap guanine nucleotide exchange factor 4 (Homo sapiens) (UniProt Q8WZA2). The experiment in a line: Validation qHTS for agonist of cAMP-regulated guanine nucleotide exchange factor 4 (EPAC2).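 Further: exchange makes BODIPY-GDP fluorescence drop when released from Rap1B; series mostly up to about 150 µM.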 Conditions: EPAC2 Rap1B BODIPY-GDP exchange, fluorescence; activation: active compounds read high. Summed up: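 Fluorescent exchange assay: 100 nM EPAC2 with 250 nM RAP1B-BODIPY-GDP and 50 uM GDP; compound added, 5 min at room temperature, then read (ex 480/em 540 nm) every 5 min for 30 min. Normalized to 6.5 mM cAMP agonist control.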
Sequence of UniProt Q8WZA2 (Q8WZA2 whole entry, looked up): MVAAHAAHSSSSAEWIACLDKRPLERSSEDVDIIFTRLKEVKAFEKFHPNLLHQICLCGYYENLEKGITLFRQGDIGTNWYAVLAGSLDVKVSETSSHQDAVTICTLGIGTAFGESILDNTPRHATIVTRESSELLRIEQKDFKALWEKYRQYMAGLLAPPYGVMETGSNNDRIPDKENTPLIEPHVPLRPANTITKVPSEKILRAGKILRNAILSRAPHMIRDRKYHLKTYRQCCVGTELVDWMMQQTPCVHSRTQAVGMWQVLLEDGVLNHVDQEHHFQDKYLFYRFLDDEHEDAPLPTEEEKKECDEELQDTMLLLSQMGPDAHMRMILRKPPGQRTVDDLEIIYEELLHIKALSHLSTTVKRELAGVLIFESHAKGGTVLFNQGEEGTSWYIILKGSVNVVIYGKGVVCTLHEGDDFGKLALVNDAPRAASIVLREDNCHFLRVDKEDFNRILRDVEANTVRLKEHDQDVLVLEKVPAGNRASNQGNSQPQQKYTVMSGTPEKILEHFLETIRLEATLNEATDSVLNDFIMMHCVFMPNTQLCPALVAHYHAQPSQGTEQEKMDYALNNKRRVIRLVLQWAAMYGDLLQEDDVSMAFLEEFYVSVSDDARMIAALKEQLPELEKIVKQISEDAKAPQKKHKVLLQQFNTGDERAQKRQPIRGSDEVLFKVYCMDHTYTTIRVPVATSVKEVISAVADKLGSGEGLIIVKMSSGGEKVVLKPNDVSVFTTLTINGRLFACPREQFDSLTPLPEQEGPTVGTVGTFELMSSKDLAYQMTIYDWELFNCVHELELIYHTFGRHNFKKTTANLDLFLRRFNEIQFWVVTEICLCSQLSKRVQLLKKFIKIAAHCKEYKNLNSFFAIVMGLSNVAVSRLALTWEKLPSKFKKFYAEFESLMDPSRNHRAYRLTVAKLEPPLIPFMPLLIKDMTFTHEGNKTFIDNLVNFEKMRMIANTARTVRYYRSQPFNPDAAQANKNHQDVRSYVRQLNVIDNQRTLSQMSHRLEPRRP
For orientation: qHTS replaces the single test concentration by a dilution series.
Take `O=P(O)(O)CP(=O)(O)O`: the activation is inactive: 10.9%. In the case of `CSc1ccccc1N1CCN(CCCCCC(=O)NC2CCCc3ccccc32)CC1` (stereo not drawn), the activation is inactive: -26.5%. In the case of `Cc1cnc(CNc2ncncc2-c2c(C)noc2C)cn1` it was inactive: 4.58%; in that of `C/C=C(/C)C(=O)OC1Cc2c(ccc3ccc(=O)oc23)OC1(C)C` (stereo not drawn), inactive: 5.45%; in that of `CC[C@@H]1/C=C(\C)C[C@H](C)C[C@H](OC)[C@H]2O[C@@](O)(C(=O)C(=O)N3CCCC[C@H]3C(=O)O[C@H](/C(C)=C/[C@@H]3CC[C@@H](Cl)[C@H](OC)C3)[C@H](C)[C@@H](O)CC1=O)[C@H](C)C[C@@H]2OC`, inactive: -6.81%. Regarding `CN(C)c1nc(CN2CCCCC2c2cccnc2)nc2ccccc12` (stereo not drawn), the activation was inactive: -10%. For the molecule `COc1ccc(C(=O)N2CCC[C@@]3(CCN(Cc4ccccc4)C3)C2)cc1`, the activation is inactive: -2.56%.

On to `O=C1[C@H](Cc2ccccc2)NC/C=C\C[C@H](c2ccc(Cl)cc2)N1Cc1ccc(Cl)cc1`, for which the activation is inactive: -12.1%. For the molecule `C[C@@](N)(Cc1ccc(O)c(O)c1)C(=O)O`, the activation was inactive: -26.5%. For `NC(N)=NC(N)=Nc1cccc(Cl)c1`, the activation is inactive: -38.6% and inactive: 6.36% and inactive: -2.61%.

With `CC(C)CN1CCC(=O)N(CCSc2ccccc2)CC1`, the activation is inactive: -18.7%.

Take `CO[C@@]1(NC(=O)Cc2cccs2)C(=O)N2C(C(=O)O)=C(COC(N)=O)CSC21` (stereo partly drawn): the activation was inactive: 5.6%. For the molecule `Cc1noc(C)c1-c1cncnc1N1CCN(C)CC1`, the activation was inactive: -16.9%.

As to `COc1cc(C(=O)N(Cc2cc3ccc(C)cc3nc2N(C)C)C2CC2)cc(OC)c1OC`, the activation is inactive: -16.7%.

Consider `O=C(c1ccc(F)c(F)c1)N1CCOc2ccc(CN3CCN(CCO)CC3)cc2C1`, for which the activation is inactive: -0.745%. In the case of `NC(CCC(=O)NC(CCSC(CC(=O)O)C(=O)O)C(=O)NCC(=O)O)C(=O)O` (stereo not drawn), the activation was inactive: -6.13%. For `COc1ccc2c(c1OC)C(=O)O[C@H]2C1c2c(cc3c(c2OC)OCO3)CCN1C` (stereo partly drawn), the activation was inactive: -9.37% and inactive: -6.05%.

Take `O=c1c(O)c(-c2ccc(O)cc2)oc2cc(O)ccc12`: the activation was inactive: -3.94%. Turning to `C[C@H](CCC(=O)O)[C@H]1CC[C@H]2[C@@H]3[C@H](O)C[C@@H]4C[C@H](O)CC[C@]4(C)[C@H]3C[C@H](O)[C@]12C`, the activation was inactive: -39.2%. In the case of `O=c1c(O)c(-c2cccc(O)c2)oc2ccccc12` it was inactive: -5.15%. As for `O=c1ccc2cc(O)c(O)cc2o1`, the activation is inactive: 7.55%. In the case of `COc1ccc(CCN(C)CCCN2CCc3cc(OC)c(OC)cc3CC2=O)cc1OC` it was inactive: -0.129%; in that of `Cc1noc(C)c1-c1cc(N2CCNCC2)ncn1`, inactive: -9.61%; in that of `c1csc(CNc2nc(CN3CCCC(c4nc5ccccc5o4)C3)nc3ccccc23)c1` (stereo not drawn), inactive: 1.82%. Regarding `NC(=O)c1ccc[n+]([C@@H]2OC(COP(=O)([O-])OP(=O)(O)OCC3OC(n4cnc5c(N)ncnc54)C(OP(=O)(O)O)C3O)C(O)C2O)c1` (stereo partly drawn), the activation was inactive: 3.09%. As to `COc1ccc(C2(C#N)CCC(C(=O)O)CC2)cc1OC1CCCC1` (stereo not drawn), the activation was inactive: -2.45%. The figure for `COc1cccc(-c2nc(N(C)Cc3ccco3)c3ccccc3n2)c1` is inactive: 10.5%. As for `Cc1noc(C)c1-c1nc(Nc2ccccc2)c2ccccc2n1`, the activation is inactive: -6.81%. The figure for `Cc1c(C(=O)NCC2COCCO2)cnn1-c1ncc2c(n1)-c1ccccc1CC2` (stereo not drawn) is inactive: -13.1%; for `CC(=O)C[C@H]1c2cc(C(F)(F)F)ccc2S(=O)(=O)N1Cc1ccccc1` it is inactive: -6.75%. In the case of `O=C(NCc1cccnc1)[C@@H]1CC=C[C@@H]2CCN(Cc3ccc(Cl)c(Cl)c3)C(=O)[C@@H]21` it was inactive: -7.57%. On to `COc1cc(N)c(Cl)cc1C(=O)OCCCN1CCCCC1`, for which the activation is inactive: -21.2%.

Consider `CCCC1OC2CC3C4CCC5=CC(=O)C=CC5(C)C4C(O)CC3(C)[C@]2(C(=O)CO)O1` (stereo partly drawn), for which the activation was inactive: 5.25%.

On to `CCNc1ncc2nc(-c3cc(F)cc(F)c3)c(=O)n(C[C@H]3CCCO3)c2n1`, for which the activation is inactive: -9.2%. In the case of `COc1ccccc1CNc1ccnc(-c2ccccc2OC)n1` it was inactive: -9.46%.

Consider `N=C(N)c1ccc(OCCCOc2ccc(C(=N)N)cc2Br)c(Br)c1`, for which the activation is inactive: -22.4%. Regarding `O=c1c(-c2ccc(F)cc2)nc2cnc(Oc3ccccc3)nc2n1Cc1cccs1`, the activation is inactive: -23.4%. In the case of `CC(C(=O)O)c1ccc(-c2ccccc2)c(F)c1` (stereo not drawn) it was inactive: -13% and inactive: 7.96%; in that of `C=C1C(C2(C)C=CC(=O)C(C)(C)C2CC(=O)OC)CC[C@@]2(C)C(c3ccoc3)OC(=O)C3OC132` (stereo partly drawn), inactive: 8.54%.

Take `CN(C)CC(C)(O)c1ccc2c(c1)CN(C(=O)c1ccc(-n3cccn3)cc1)CCO2` (stereo not drawn): the activation was inactive: 0.141%. Regarding `O=C(c1cnccn1)N1CCC2(CC1)CCN(c1ccccn1)CC2`, the activation is inactive: -12%.

For the molecule `COC(=O)C1CCN(Cc2ccc3c(c2)CN(C(=O)c2cc(C)nc(C)n2)CCO3)CC1`, the activation was inactive: 1.9%. The figure for `COc1cc2c(N3CCN(C(=O)Nc4ccc(OC(C)C)cc4)CC3)ncnc2cc1OCCCN1CCCCC1` is inactive: 3.09%; for `CCCN1CCC(=O)N(CCSc2ccccc2)CC1` it is inactive: -16.5%; for `NC(=O)c1cn(Cc2c(F)cccc2F)nn1` it is inactive: -2.45% and inactive: -41.7%. As for `Cc1ccnc2c(N)cccc12`, the activation was inactive: -19.9%. The figure for `O=S1(=O)CCO[C@H]2Cc3ccccc3[C@H]2N1Cc1ccc(F)cc1` is inactive: -28.9%; for `Cc1cc(O)c2c(c1)C(=O)c1cccc(O)c1C2=O` it is inactive: -16.6% and inactive: -5.99%. Regarding `CC(=O)O[C@@]1(C(C)=O)CCC2C3C=C(Cl)C4=CC(=O)CC[C@]4(C)C3CC[C@]21C` (stereo partly drawn), the activation was inactive: -7.95%. In the case of `CC(=O)c1ccc(F)c(-c2cc(C)cc3c2OC(CNC(=O)c2csc(C)n2)C3)c1` (stereo not drawn) it was inactive: -20%. `O=S(=O)(c1ccccc1)N1CCC2(CCCN(c3ccncc3)C2)CC1`: the activation was inactive: 1.82%. In the case of `c1ccc2[nH]ccc2c1` it was inactive: 0.55%. Consider `Cc1ccc2nc(-c3ccccc3C)c(CN(CC3CCCO3)C(=O)c3cccs3)cc2c1` (stereo not drawn), for which the activation is inactive: -19.1%.
